# Where “and” joins values, the source holds several entries; their conditions need not be identical. Identical values can stand only once. About 12,000 (3.5%) of roughly 340,000 compounds were called active. The shares of active, inactive and inconclusive entries below differ from those in the screen. The call rests on the fitted dose curve; in most records, active means well fitted inhibition curve with a large enough effect; inconclusive means small, poorly fitted or top-dose-only effect, or another doubt; inactive means no such curve, though single readings can be large or run the other way. Potencies of inconclusive entries are doubtful fits and often do not repeat.
# Experiment: qHTS Assay for Inhibitors of Hepatitis C Virus (HCV)
# Details: Huh7.5.1 HCVcc-Cre (HCVcc is cell-culture hepatitis C virus) infection, luciferase reporter, 44 h; series mostly up to 41.8 µM
# In short: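 Infectious HCV cell culture screen: compound-treated cells (1,000/well, pre-plated 4 h) are infected with HCVcc-Cre at roughly 0.5 moi and grown 44 h. Infection is quantified by luciferase signal after 15 min substrate incubation at room temperature.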
# Potency means the concentration at half of the fitted maximal effect; tags describe the fitted curve by direction and shape.
row,Structure (SMILES),Potency
1,O=C(COc1ccc(C(=O)c2ccccc2)cc1)NCC1CCCCC1,"inconclusive: 17.8 µM [inhibitor, partial curve]"
2,COc1cc(C(=O)Nc2ccccc2N2CCOCC2)ccc1OCc1c(C)noc1C,"inconclusive: 0.355 µM [inhibitor, full curve, poor fit]"
3,O=C(NCc1ccco1)c1cc2n(n1)C(C(F)(F)F)CC(c1ccc(F)cc1)N2 (configuration not stated),"inconclusive: 35.5 µM [inhibitor, partial curve]"
4,C/C(=N/NC(=O)CNC(=O)c1ccccn1)c1ccccc1,inactive
5,CCn1c(CNC(=O)COc2ccc(C(C)C)cc2)nnc1SCC(=O)Nc1ccc(F)cc1,"inconclusive: 22.4 µM [inhibitor, single point]"
6,CCCNS(=O)(=O)c1ccc(CCC(=O)N2CCN(c3ccc(OC)cc3)CC2)cc1,"inconclusive: 11.2 µM [inhibitor, single point]"
7,CC(Sc1ccc(Cl)cc1)C(=O)Nc1ccc(S(=O)(=O)N2CCOCC2)cc1 (configuration not stated),"inconclusive: 31.6 µM [inhibitor, single point]"
8,COc1ccc(C(=O)Nc2nccs2)cc1OC,"inconclusive: 3.98 µM [inhibitor, full curve]"
9,O=C1OCCN1C(=O)[C@H]1[C@H](c2ccc([N+](=O)[O-])cc2)C(c2ccc(F)cc2)=NN1c1ccccc1,"inconclusive: 7.94 µM [inhibitor, partial curve]"
10,Cc1ccc2[nH]c3c(c2c1)CCCC3NCCO (configuration not stated),"inconclusive: 10 µM [inhibitor, partial curve]"
11,C(=N\c1ncnc2sccc12)/NOCc1ccccc1,"inconclusive: 10 µM [inhibitor, partial curve, poor fit]"
12,CS(=O)(=O)c1ccccc1C(=O)Nc1cccc(-c2nc3ccccc3o2)c1,active: 11.2 µM
13,C=C(C)COc1ccc2c(C)c(CC(=O)N3C[C@H]4C[C@@H](C3)c3cccc(=O)n3C4)c(=O)oc2c1C,inactive
14,COc1cccc2sc(Nc3nnc(-c4ccccc4Cl)o3)nc12,"inconclusive: 10 µM [inhibitor, partial curve]"
15,CC(=O)NCCC(=O)Nc1sc2c(c1-c1nc3ccccc3[nH]1)CCCC2,active: 11.2 µM
16,O=C(CNC(=O)c1ccccc1F)N/N=C/c1cc(Br)ccc1OCc1ccccc1,"inconclusive: 10 µM [inhibitor, single point]"
17,CCOc1ccc(S(=O)(=O)Nc2cnc3ccccc3c2)cc1,active: 1.78 µM
18,Oc1ccccc1N1CCN(C(=S)NCCc2ccccc2)CC1,"inconclusive: 31.6 µM [inhibitor, partial curve, poor fit]"
19,COc1ccc(CNC(=O)CC2C[C@H](C(=O)N(C(C)C)C(C)C)[C@@]3(C)c4[nH]c5ccccc5c4CCN3C2=O)cc1OC (some centres not stated),"inconclusive: 31.6 µM [inhibitor, single point]"
20,CCOc1ccccc1N1CCN(C(=O)c2c(-c3ccccc3Cl)noc2C)CC1,"inconclusive: 22.4 µM [inhibitor, single point]"
21,CCCCn1c2c(c3ccccc31)CCc1nonc1-2,"inconclusive: 10 µM [inhibitor, partial curve]"
22,S=c1[nH]nc(Cc2ccccc2)n1Cc1ccco1,inactive
23,Cn1c(=O)c2[nH]c(COc3ccc(C(C)(C)C)cc3)nc2n(C)c1=O,active: 11.2 µM

row,Structure (SMILES),Potency
1,Cc1[nH]c2ccccc2c1/C=N/NC(=O)c1cccs1,"inconclusive: 10 µM [inhibitor, partial curve]"
2,COc1ccc(CCn2c(=N)c(C(=O)NCCN3CCOCC3)cc3c(=O)n4cccc(C)c4nc32)cc1OC,"inconclusive: 15.8 µM [inhibitor, single point]"
3,COc1ccc(CCNC(=O)Cn2cc(C(F)(F)F)cc(Cl)c2=O)cc1OC,inactive
4,c1ccc2c(c1)oc1c(NCCCn3ccnc3)ncnc12,inactive
5,COc1cccc(N2CCN(CC(=O)Nc3ccnn3C3CCCC3)CC2)c1,active: 10 µM
6,COc1ccccc1C1=NOC(COc2ccc3c(C)cc(=O)oc3c2)C1 (configuration not stated),"inconclusive: 1.12 µM [inhibitor, full curve, poor fit]"
7,CC(=O)N(C1=C(Cl)C(=O)c2ccccc2C1=O)C1CCCCC1,active: 7.94 µM
8,Cc1cc(C)c(S(=O)(=O)NCCCn2ccnc2)cc1C,inactive
9,O=C(Nc1ccnn1C1CCN(Cc2ccc(OC(F)F)cc2)CC1)C1CCCC1,active: 22.4 µM
10,NC(=O)c1ccccc1OCC(=O)N1CCCC1c1ccc2c(c1)OCCCO2 (configuration not stated),inactive
11,CC(Sc1nc2ncc(Cl)cc2[nH]1)C(=O)NC1(C#N)CCCCC1 (configuration not stated),"inconclusive: 31.6 µM [inhibitor, single point]"
12,Cc1cc(SCC(=O)Nc2ccc3[nH]c(=O)[nH]c3c2)nc2ccccc12,"inconclusive: 6.31 µM [inhibitor, full curve]"
13,CC(C)c1ccc(NC(=O)[C@@H](NC(=O)N2CC(=O)Nc3ccccc32)C(C)C)cc1,"inconclusive: 11.2 µM [inhibitor, partial curve]"
14,O=C(NCC(c1ccco1)N1CCN(c2ccc(F)cc2)CC1)c1ccc2c(c1)OCO2 (configuration not stated),"inconclusive: 31.6 µM [inhibitor, single point]"
15,O=C(Cn1cnc2c(nnn2Cc2ccccc2F)c1=O)OCc1ccccc1,inactive
16,CC(C(=O)N1CCc2ccccc21)N1CCN(S(=O)(=O)c2cccc(C(F)(F)F)c2)CC1 (configuration not stated),inactive
17,CC(=O)Nc1ccc(-c2csc(NC(=O)Cc3cccc(F)c3)n2)cc1,active: 7.94 µM
18,O=C(COC(=O)c1ccc(S(=O)(=O)N2CCCC2)cc1)NCc1ccco1,"inconclusive: 5.01 µM [inhibitor, single point]"
19,Cc1nc(NCC2CC2)c2nnn(Cc3ccccc3)c2n1,"inconclusive: 17.8 µM [inhibitor, single point]"
20,Cc1ccc2nc(NCCCO)nc(-c3ccccc3)c2c1,"inconclusive: 31.6 µM [inhibitor, single point]"
21,CCC(O)C1CCN(C(=O)c2cc(COc3ccc4ncccc4c3)on2)CC1 (configuration not stated),active: 1.78 µM
22,Cc1cc(C)c(NC(=O)CCCCCNC2CCCCC2)c(C)c1,"inconclusive: 31.6 µM [inhibitor, single point]"
23,CCN(C(=O)c1ccc(=O)[nH]c1)c1c(N)n(Cc2ccccc2)c(=O)[nH]c1=O,inactive

row,Structure (SMILES),Potency
1,Cc1nc(Nc2ccc(F)cc2)[nH]c(=O)c1CCC(C)C,inactive
2,CCCCN1CC(COCc2ccccc2)Oc2cccc(OCCN3C(=O)[C@@H]4[C@H](C3=O)C3C=C[C@H]4C3)c2S1(=O)=O (some centres not stated),active: 10 µM
3,CN(C)S(=O)(=O)c1cccc(COc2ccccc2C(=O)Nc2ccccc2)c1,"inconclusive: 3.16 µM [inhibitor, partial curve]"
4,CCN(CC)c1ccc(NC(=O)c2ccc3c(c2)c(C)c(C)n3C)cc1,"inconclusive: 3.55 µM [inhibitor, full curve]"
5,O=C(Nc1cccn(Cc2c(Cl)cccc2Cl)c1=O)c1ccccc1Cl,"inconclusive: 31.6 µM [inhibitor, single point]"
6,Cc1cc(Cl)ccc1NC(=O)CSc1nnc(Cc2cccs2)n1Cc1ccco1,"inconclusive: 25.1 µM [inhibitor, partial curve, poor fit] and inconclusive: 1.78 µM [inhibitor, partial curve]"
7,Cc1nc(CN2CCN(C(=O)c3ccc(C(C)(C)C)cc3)CC2)cs1,"inconclusive: 31.6 µM [inhibitor, single point]"
8,CCOc1ccc(N(CC(=O)Nc2ccc(C)c(C)c2)S(=O)(=O)c2c(C)noc2C)cc1,"inconclusive: 22.4 µM [inhibitor, single point] and inconclusive: 31.6 µM [inhibitor, single point]"
9,CCN(CC)C(=O)COc1ccc2oc(C)c(C(=O)OC)c2c1,"inconclusive: 5.62 µM [inhibitor, single point]"
10,CCCC[C@@H]1CNCCN1CCc1cc(C(F)(F)F)cc(C(F)(F)F)c1,"inconclusive: 12.6 µM [inhibitor, single point]"
11,N=c1c(C(=O)NC2CCCCC2)cc2c(=O)n3ccccc3nc2n1Cc1ccc(F)cc1,inactive
12,CCOc1cc(N2CCOCC2)c(OCC)cc1NC(=O)c1ccc2ccccc2n1,"inconclusive: 2.24 µM [inhibitor, full curve]"
13,Cc1cc(C)nc(NC(=NCCc2c[nH]c3ccccc23)NC(=O)Nc2ccccc2)n1,"inconclusive: 11.2 µM [inhibitor, single point]"
14,O=C1CC(C(=O)N2CCN(c3ccccn3)CC2)CN1Cc1ccccc1Cl (configuration not stated),inactive
15,CC(C)(C)c1cc(C=C(C#N)C#N)cc(C(C)(C)C)c1O,"inconclusive: 0.891 µM [inhibitor, full curve]"
16,Cc1cc(C)c(Nc2cc(S(=O)(=O)O)c(N)c3c2C(=O)c2ccccc2C3=O)c(C)c1,inactive
17,O=C(NCCN1CCCCC1)Nc1ccc(F)c(Cl)c1,"inconclusive: 22.4 µM [inhibitor, single point]"
18,Cc1c2cnccc2c(C)c2c1oc1ccccc12,"inconclusive: 10 µM [inhibitor, partial curve]"
19,COc1ccc(/C=C/C(=O)OCn2c(SC)nnc(C)c2=O)cc1OC,inactive
20,O=C(c1ccc2c(c1)OCO2)N1CCC2(CC1)Oc1ccc(Cl)cc1C(=O)C21CC(c2ccccc2)=NO1 (configuration not stated),inactive
21,COc1ccc(/C=C/c2onc(C)c2S(=O)(=O)N2CCC(C(=O)N3CCC(C)CC3)CC2)cc1,"inconclusive: 22.4 µM [inhibitor, single point]"
